This is one part of the list. At the low end of the ranking, values are background and their order means little. Measured with an extract: partners may take part in the binding.

For this assay, the target named is T1, HNF4alpha8 (COS-7 nuclear extract) (UniProt P41235-5).
T1 sequence: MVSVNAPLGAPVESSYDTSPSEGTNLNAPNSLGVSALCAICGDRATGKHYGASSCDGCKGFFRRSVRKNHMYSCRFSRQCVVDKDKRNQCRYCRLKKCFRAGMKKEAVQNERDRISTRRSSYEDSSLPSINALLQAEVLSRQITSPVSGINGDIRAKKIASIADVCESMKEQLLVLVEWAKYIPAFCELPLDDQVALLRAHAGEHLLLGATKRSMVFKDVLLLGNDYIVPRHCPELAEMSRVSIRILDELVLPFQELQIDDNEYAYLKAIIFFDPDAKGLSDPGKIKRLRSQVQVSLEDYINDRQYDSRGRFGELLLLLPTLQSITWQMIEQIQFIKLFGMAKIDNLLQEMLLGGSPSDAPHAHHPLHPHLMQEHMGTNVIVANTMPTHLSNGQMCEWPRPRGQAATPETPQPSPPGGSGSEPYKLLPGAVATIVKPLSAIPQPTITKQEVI
The experiment in a line: protein-binding microarray. The note with it: COS-7 nuclear extract on double-stranded Agilent 4x180k PBM; binding buffer, salt, pH and temperature not given; high values mean tight binding; double strand, one strand shown; sequences stand for … in …GCCTAGGGAGATTAGAGTATCGGTCGA
CCCTTATCTTCTGGCCACCTCTTCCAGAGT: the binding signal (log2 normalized intensity) came out at 0.238.

Take GACAAAGAGCAAGTGACCCTCAGACACACA: the binding signal (log2 normalized intensity) amounted to 1.26.

Consider CAGACACGCTTGACTGGCTCCACCACTTTG, for which the binding signal (log2 normalized intensity) is -1.4.

On to GGTGATGTGAACCTCGATCCCTGGCTAAGG, for which the binding signal (log2 normalized intensity) is 2.38.

Take AAGTGCTTGTTCCCTCCATCCAAGGCCCGC: the binding signal (log2 normalized intensity) was -1.21.

As to AAGTGGTTGTAGCAGTTCACACTCCCACCA, the binding signal (log2 normalized intensity) is -0.867.

As to TGGGCACTGTCCTAGGTGCTGAAGATGCAA, the binding signal (log2 normalized intensity) is -0.883.

Turning to ACTTGTTTTTTCAGGTGTTGCTCTCTTGCC, the binding signal (log2 normalized intensity) was found to be 1.63.

Turning to GAAAGGGCCTCTCAGGTCAGGGAAGACTGA, the binding signal (log2 normalized intensity) was -1.11.

On to ATATGAAGCATTGCTTGAGTCACTTGGTTT, for which the binding signal (log2 normalized intensity) stood at 1.42.

Take TAGATAAGAGCTGAGGAAGTGCTGACCTTT: the binding signal (log2 normalized intensity) came to 6.57.

For the sequence GCCCTCTCCATGCAGACAGTCCCTCCTCCA, the binding signal (log2 normalized intensity) was found to be 1.31.

On to AGCAAGGTCAAAGTGCGTCCTGTGGCAAAG, for which the binding signal (log2 normalized intensity) was 4.55.

AGGTGCCTGGGATCGAAAGGACATTGTCCA: the binding signal (log2 normalized intensity) was determined as 2.53.

In the case of TTATACAGCCTTGGAAGACACAGATGGTGT, the binding signal (log2 normalized intensity) is 1.19.

TAACAATTCTTTCTGATAAGAGCATTTTTG: the binding signal (log2 normalized intensity) was -0.112.

On to GAGCCCAGCAAACCTATAGGACCAGGCTGT, for which the binding signal (log2 normalized intensity) was -1.31.

In the case of TGGGGCTTAGATAGCAGTGTGAGTGTCAGA, the binding signal (log2 normalized intensity) was 0.573.

Regarding CACAAGTCCTCACAATAATGAGAAACGCCT, the binding signal (log2 normalized intensity) was -1.26.

In the case of AACAAAGAGAAAGGGTCAATGTGATCAGGT, the binding signal (log2 normalized intensity) was found to be 1.88.

Regarding AAAGGTGATCTGCTGGAATGAAGACTCACA, the binding signal (log2 normalized intensity) was -1.4.

In the case of ACCTTGCAGGCCAGGGAGTGCAGCTGCAGG, the binding signal (log2 normalized intensity) is -1.1.

TCCTTCCCTCAGCAACTGCAAGGCTGACCC: the binding signal (log2 normalized intensity) was 3.92.

With GCACAGCTGATTGCTCAACCCAAAGCATGT, the binding signal (log2 normalized intensity) was -1.33.

In the case of AAGACTCACATCTATCTCCCTACCCTCACC, the binding signal (log2 normalized intensity) is 1.95.

In the case of CCTAAATTCAAATGGACCCAAGCGGCCATT, the binding signal (log2 normalized intensity) turned out to be 1.96.

In the case of TGAGGGAGCAAAGGGCATGGAGGATTTAGA, the binding signal (log2 normalized intensity) turned out to be 2.4.

Regarding AATGTCTTTTAAATACATAGCTGGGATGAG, the binding signal (log2 normalized intensity) was found to be 0.498.

As for TAGCTCCAGTTGGTTGCTAAGAGACAGCTC, the binding signal (log2 normalized intensity) is -1.47.

As for CACACACCCCTCCACTGGACAGCAGCTACA, the binding signal (log2 normalized intensity) was determined as 1.66.

In the case of CTGGCAGAGGGGATCAAGTGGCAATAAACT, the binding signal (log2 normalized intensity) was -1.33.

For TGCATTCCTTTGTTTATCTAACCCACATCC, the binding signal (log2 normalized intensity) worked out at 1.85.

For CCTTTTTAATGTTTCATTAAGCAAGATATG, the binding signal (log2 normalized intensity) was 1.3.

In the case of AATACACAATCTGAAGTCCCCTGTGCTTTG, the binding signal (log2 normalized intensity) was determined as 2.22.

With CCACCACTGCTTCCTGCCCCCTGTGGTCAA, the binding signal (log2 normalized intensity) is 4.14.

Take GTGGGAAGGGATCAGAAATTGATTTGTAAC: the binding signal (log2 normalized intensity) came out at 0.512.

Regarding CAGGGTGGGGTCTCGCTGCTTCGGCCTTTG, the binding signal (log2 normalized intensity) is 1.11.

Take TACAGAATTCTCATGGAGGACTTTGGCCTT: the binding signal (log2 normalized intensity) is 7.81.

Regarding TAAATCCCTGCCAAAATATGTCAAGTAGCT, the binding signal (log2 normalized intensity) was -1.39.

As for TCTCTGGGTCAAAGGTCATCGCACCGGCAG, the binding signal (log2 normalized intensity) was found to be 7.54.

As for CACAATGATAACAGCGTTTTCCCATTCATG, the binding signal (log2 normalized intensity) is -1.34.

In the case of AGTATTTTCTGTCTAGGTGCCAGAATTGCT, the binding signal (log2 normalized intensity) was -1.34.

Consider GAATGACTTTGGGGAAATGACCTTTGTCCA, for which the binding signal (log2 normalized intensity) came out at 9.48.

In the case of GGAAGAGGAAGCATCCTATAGGCCTATAAT, the binding signal (log2 normalized intensity) was -1.26.

In the case of TTGTGGCAGTGAGAACAGGTTCATTCTTTA, the binding signal (log2 normalized intensity) came to 0.687.

Regarding CAGAAGACTACAAATTCCTCAATCCAGTCA, the binding signal (log2 normalized intensity) was -1.23.

As for TGCAAGAGAGCAAACTTCAAAGAAGCTGTT, the binding signal (log2 normalized intensity) is -1.17.

TGGGTTCAAAGAGCACATTCCTGCACCATA: the binding signal (log2 normalized intensity) is 3.22.

Regarding AGGCATACCTTTCTTATCATAAGTAAAAAG, the binding signal (log2 normalized intensity) is -0.0422.

For the sequence CCTTATCTGAATTCCAGCATCACTAATGTC, the binding signal (log2 normalized intensity) was 0.361.

For the sequence CTTCCAAGTCTCAGCACCTGTGCTTCACTC, the binding signal (log2 normalized intensity) is -1.1.

As for GCCTCATTTCACCTTTGGTCTTTGGTGAAA, the binding signal (log2 normalized intensity) is 4.52.

Regarding TGTGACAAGAAAGACCCAAGGCGTATGAAG, the binding signal (log2 normalized intensity) was -1.31.

As for GCGTCATCAGTCCAGGAGGGTCACAAGTCC, the binding signal (log2 normalized intensity) was 3.15.

In the case of GGACAGACACACCCTTCAGAGCTTGAAAAG, the binding signal (log2 normalized intensity) was -1.26.

For the sequence GTCCCCCGACCCGCCCGACTACAACAGCCT, the binding signal (log2 normalized intensity) stood at 4.95.

In the case of CCACCTAGGCCGGTCAAGTCAGAGGCCCAG, the binding signal (log2 normalized intensity) is -1.12.

Take GTGTTCTGCTGCCATTGGATGGAATGTTCT: the binding signal (log2 normalized intensity) stood at 1.63.

Consider GTACAGCCTTTGATCTACAGTCAGAGGCCT, for which the binding signal (log2 normalized intensity) was -1.04.

On to GCTTATCTCACTCCAAAGGCTGTTTGCACC, for which the binding signal (log2 normalized intensity) turned out to be 1.79.

Take GCAAAGGTTTCCTAAACAGTTACCGAGAGG: the binding signal (log2 normalized intensity) is -1.25.

CTGCACAGGACTGCTCTCTACTCAGGGGGT: the binding signal (log2 normalized intensity) was -1.1.

As to AGTAAAAGGTAGATACTATAATTAGAATCT, the binding signal (log2 normalized intensity) was -1.23.

Regarding TTACCGGTGTGACTTTGGTTGGATTTCTTG, the binding signal (log2 normalized intensity) turned out to be 1.56.

For the sequence GAATAGAAAGAGGTCAATGTACTTACAGCT, the binding signal (log2 normalized intensity) was 1.18.

As for AGGGTTAAATCTCGGTATAATTCCTAAATA, the binding signal (log2 normalized intensity) is -1.28.

On to TCTATCCAGATGATCTTTACCCTGGAATGC, for which the binding signal (log2 normalized intensity) stood at 3.32.

Turning to TTACACCTGGGTGCTCCCTCCCCCTGCATG, the binding signal (log2 normalized intensity) worked out at 4.37.

As for GCCTGCACACGGTGTCCAGATTCCAGCCTC, the binding signal (log2 normalized intensity) is -1.25.

For the sequence CTATCATTATCTCTCACTGCAGAAACTCTG, the binding signal (log2 normalized intensity) stood at 0.349.

As to ATAGGGTCAGTCTTTGTTCTAGTAAGGCCT, the binding signal (log2 normalized intensity) is 1.68.

On to GTGGACTTTGTCCTGTGGGCTGTAAAAATC, for which the binding signal (log2 normalized intensity) turned out to be 5.73.

With ATAGGAACATGAACTGAGCAGGCCTGGGCT, the binding signal (log2 normalized intensity) is -1.42.
